Results on 9 variants are retold here after the supplement of paper PMC12217912.

The list shows a part of the results. The full chains were built here from the parent and the listed change. Inactive controls read about 0.05.

Sequences and labels used below:
B1: TEV protease; numbered along this chain (parent)
chain: MGESLFKGPRDYNPISSSICHLTNESDGHTTSLYGIGFGPFIITNKHLFRRNNGTLVVQSLHGVFKVKDTTTLQQHLVDGRDMIIIRMPKDFPPFPQKLKFREPQREERICLVTTNFQTKSMSSMVSDTSCTFPSGDGIFWKHWIQTKDGQCGSPLVSTRDGFIVGIHSASNFTNTNNYFTSVPKNFMELLTNQEAQQWVSGWRLNADSVLWGGHKVFMVKPEEPFQPVKEATQL

Variants of B1 are the subject of the assay. Kind of assay: raw area under fraction-flipped curve 0-4 h after induction (AUC4h, not background-subtracted), DNA-recorder readout of cleavage of the substrate (dimensionless); higher = more cleavage of the substrate by the protease variant. To be noted: temperature: 34 °C; time window: 0-4 h after rhamnose induction. As for the experimental part: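 In vivo DNA recorder in E. coli TOP10(DE3) ΔrhaA at 34 °C. Each TEVp single-site mutant (parent TEVp 0) is paired with a single-site variant of the 7-mer TEVs (canonical ENLYFQ|S). The substrate sits between flexible linkers in a Bxb1-sfGFP-TEVs-SsrA fusion, so cleavage stabilises Bxb1 and speeds flipping of a recombination array, read by NGS. The value is the raw area under the fraction-flipped curve over 0-4 h after rhamnose induction (AUC4h), with ≥20 reads per time point. It is not background-subtracted; inactive controls average about 0.047.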
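Note: Bxb1 expression induced with 0.2% (w/v) L-rhamnose at OD600 near 0.5, cultures sampled hourly, flipped fraction per protease–substrate barcode pair counted by paired-end Illumina sequencing.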

On to MGESLFKGPRDYNPISSSICHLTNESDGHTTSLYGIGFGPFIITNKHLFRRNNGTLVVQSLHGVFKVKDTTTLQQHLVDGRDMIIIRMPKDFPPFPQKLKFREPQREERICLVTTNFQTKSMSSMVSDTSCTFPSGDGIFWKHWIQTKDGQCGSPLVSTRDGFIVFIHSASNFTNTNNYFTSVPKNFMELLTNQEAQQWVSGWRLNADSVLWGGHKVFMVKPEEPFQPVKEATQL [G166F], for which the “area with substrate ENAYFQS” value worked out at 0.0522, the “area with substrate ENCYFQS” value stood at 0.0488, the “area with substrate ENDYFQS” value is 0.0476 and the “area with substrate ENEYFQS” value is 0.0586. In addition, the “area with substrate ENFYFQS” value worked out at 0.0356, the “area with substrate ENHYFQS” value was determined as 0.0445, the “area with substrate ENIYFQS” value came out at 0.0503 and the “area with substrate ENPYFQS” value was 0.0498. The “area with substrate ENQYFQS” value worked out at 0.0349, the “area with substrate ENSYFQS” value worked out at 0.0551, the “area with substrate ENTYFQS” value came out at 0.0408 and the “area with substrate ENVYFQS” value stood at 0.0577.
For MGESLFKGPRDYNPISSSICHLTNESDGHTTSLYGIGFGPFIITNKHLFRRNNGTLVVQSLHGVFKVKDTTTLQQHLVDGRDMIIIRMPKDFPPFPQKLKFREPQREERICLVTTNFQTKSMSSMVSDTSCTFPSGDGIFWKHWIQTKDGQCGSPLVSTRDGFIVWIHSASNFTNTNNYFTSVPKNFMELLTNQEAQQWVSGWRLNADSVLWGGHKVFMVKPEEPFQPVKEATQL [G166W], the “area with substrate ENAYFQS” value turned out to be 0.0444, the “area with substrate ENCYFQS” value was 0.0489, the “area with substrate ENDYFQS” value came out at 0.0591 and the “area with substrate ENFYFQS” value is 0.0637. For the same variant, the “area with substrate ENGYFQS” value came out at 0.0553, the “area with substrate ENIYFQS” value came to 0.0331, the “area with substrate ENKYFQS” value came to 0.0588 and the “area with substrate ENNYFQS” value was found to be 0.0684. For the same variant, the “area with substrate ENRYFQS” value is 0.052, the “area with substrate ENSYFQS” value is 0.0445, the “area with substrate ENVYFQS” value was determined as 0.074 and the “area with substrate ENYYFQS” value was determined as 0.0532.
As for MGESLFKGPRDYNPISSSICHLTNESDGHTTSLYGIGFGPFIITNKHLFRRNNGTLVVQSLHGVFKVKDTTTLQQHLVDGRDMIIIRMPKDFPPFPQKLKFREPQREERICLVTTNFQTKSMSSMVSDTSCTFPSGDGIFWKHWIQTKDGQCGSPLVSTRDGFQVGIHSASNFTNTNNYFTSVPKNFMELLTNQEAQQWVSGWRLNADSVLWGGHKVFMVKPEEPFQPVKEATQL [I164Q], the “area with substrate ENAYFQS” value was 0.0536, the “area with substrate ENCYFQS” value turned out to be 0.0603, the “area with substrate ENDYFQS” value was 0.0613 and the “area with substrate ENEYFQS” value is 0.0549. Besides, the “area with substrate ENFYFQS” value was 0.051, the “area with substrate ENGYFQS” value is 0.0548, the “area with substrate ENHYFQS” value came to 0.0612 and the “area with substrate ENIYFQS” value turned out to be 0.0361. For the same variant, the “area with substrate ENKYFQS” value turned out to be 0.0473, the “area with substrate ENMYFQS” value came to 0.0429, the “area with substrate ENNYFQS” value came out at 0.0528 and the “area with substrate ENQYFQS” value was 0.0452. The “area with substrate ENRYFQS” value was 0.046, the “area with substrate ENSYFQS” value was determined as 0.0502, the “area with substrate ENTYFQS” value came out at 0.0486 and the “area with substrate ENWYFQS” value was 0.0166. The “area with substrate ENYYFQS” value worked out at 0.0284.
Consider MGESLFKGPRDYNPISSSICHLTNESDGHTTSLYGIGFGPFIITNKHLFRRNNGTLVVQSLHGVFKVKDTTTLQQHLVDGRDMIIIRMPKDFPPFPQKLKFREPQREERICLVTTNFQTKSMSSMVSDTSCTFPSGDGIFWKHWIQTKDGQCGSPLVSTRDGFGVGIHSASNFTNTNNYFTSVPKNFMELLTNQEAQQWVSGWRLNADSVLWGGHKVFMVKPEEPFQPVKEATQL [I164G], for which the “area with substrate ENAYFQS” value came out at 0.0548, the “area with substrate ENCYFQS” value is 0.0607, the “area with substrate ENGYFQS” value was 0.0681 and the “area with substrate ENHYFQS” value turned out to be 0.0618. For the same variant, the “area with substrate ENKYFQS” value is 0.0593, the “area with substrate ENMYFQS” value was 0.0579, the “area with substrate ENPYFQS” value was 0.0496 and the “area with substrate ENQYFQS” value is 0.0603. Besides, the “area with substrate ENRYFQS” value was 0.0528, the “area with substrate ENSYFQS” value came to 0.0399, the “area with substrate ENTYFQS” value amounted to 0.0404 and the “area with substrate ENVYFQS” value was 0.0624.
Take MGESLFKGPRDYNPISSSICHLTNESDGHTTSLYGIGFGPFIITNKHLFRRNNGTLVVQSLHGVFKVKDTTTLQQHLVDGRDMIIIRMPKDFPPFPQKLKFREPQREERICLVTTNFQTKSMSSMVSDTSCTFPSGDGIFWKHWIQTKDGQCGSPLVSTRDLFIVGIHSASNFTNTNNYFTSVPKNFMELLTNQEAQQWVSGWRLNADSVLWGGHKVFMVKPEEPFQPVKEATQL [G162L]: the “area with substrate ENAYFQS” value was determined as 0.0564, the “area with substrate ENCYFQS” value turned out to be 0.0508, the “area with substrate ENDYFQS” value was determined as 0.0713 and the “area with substrate ENFYFQS” value was found to be 0.0512. For the same variant, the “area with substrate ENGYFQS” value was 0.0641, the “area with substrate ENHYFQS” value amounted to 0.0505, the “area with substrate ENQYFQS” value stood at 0.059 and the “area with substrate ENSYFQS” value was 0.0562. The “area with substrate ENTYFQS” value turned out to be 0.0673 and the “area with substrate ENVYFQS” value is 0.0621.
Take MGESLFKGPRDYNPISSSICHLTNESDGHTTSLYGIGFGPFIITNKHLFRRNNGTLVVQSLHGVFKVKDTTTLQQHLVDGRDMIIIRMPKDFPPFPQKLKFREPQREERICLVTTNFQTKSMSSMVSDTSCTFPSGDGIFWKHWIQTKDGQCGSPLVSTRDRFIVGIHSASNFTNTNNYFTSVPKNFMELLTNQEAQQWVSGWRLNADSVLWGGHKVFMVKPEEPFQPVKEATQL [G162R]: the “area with substrate ENAYFQS” value came to 0.0656, the “area with substrate ENCYFQS” value came to 0.0495, the “area with substrate ENDYFQS” value is 0.0532 and the “area with substrate ENEYFQS” value came out at 0.0851. Also, the “area with substrate ENHYFQS” value came to 0.0525, the “area with substrate ENIYFQS” value amounted to 0.083, the “area with substrate ENMYFQS” value turned out to be 0.0729 and the “area with substrate ENPYFQS” value is 0.0631. Further, the “area with substrate ENQYFQS” value stood at 0.0691, the “area with substrate ENRYFQS” value was found to be 0.056, the “area with substrate ENSYFQS” value was found to be 0.0562 and the “area with substrate ENTYFQS” value is 0.0669. For the same variant, the “area with substrate ENVYFQS” value is 0.0745 and the “area with substrate ENYYFQS” value was 0.0517.
For the variant MGESLFKGPRDYNPISSSICHLTNESDGHTTSLYGIGFGPFIITNKHLFRRNNGTLVVQSLHGVFKVKDTTTLQQHLVDGRDMIIIRMPKDFPPFPQKLKFREPQREERICLVTTNFQTKSMSSMVSDTSCTFPSGDGIFWKHWIQTKDGQCGSPLVSTRDGFIVGVHSASNFTNTNNYFTSVPKNFMELLTNQEAQQWVSGWRLNADSVLWGGHKVFMVKPEEPFQPVKEATQL [I167V], the “area with substrate ENAYFQS” value came out at 0.0641, the “area with substrate ENDYFQS” value came out at 0.0595, the “area with substrate ENEYFQS” value stood at 0.0523 and the “area with substrate ENFYFQS” value stood at 0.0468. For the same variant, the “area with substrate ENGYFQS” value came out at 0.0434, the “area with substrate ENKYFQS” value amounted to 0.042, the “area with substrate ENPYFQS” value was found to be 0.0421 and the “area with substrate ENQYFQS” value amounted to 0.0631. Besides, the “area with substrate ENRYFQS” value amounted to 0.0258 and the “area with substrate ENSYFQS” value was 0.0516.
With MGESLFKGPRDYNPISSSICHLTNESDGHTTSLYGIGFGPFIITNKHLFRRNNGTLVVQSLHGVFKVKDTTTLQQHLVDGRDMIIIRMPKDFPPFPQKLKFREPQREERICLVTTNFQTKSMSSMVSDTSCTFPSGDGIFWKHWIQTKDGQCGSPLVSTRDGFIVGRHSASNFTNTNNYFTSVPKNFMELLTNQEAQQWVSGWRLNADSVLWGGHKVFMVKPEEPFQPVKEATQL [I167R], the “area with substrate ENAYFQS” value came out at 0.0364, the “area with substrate ENCYFQS” value is 0.0538, the “area with substrate ENEYFQS” value was determined as 0.0512 and the “area with substrate ENGYFQS” value was determined as 0.0608. In addition, the “area with substrate ENHYFQS” value came out at 0.058, the “area with substrate ENKYFQS” value was 0.0441, the “area with substrate ENNYFQS” value is 0.0307 and the “area with substrate ENPYFQS” value is 0.0398. The “area with substrate ENQYFQS” value was determined as 0.0526, the “area with substrate ENRYFQS” value was 0.0384, the “area with substrate ENSYFQS” value was 0.0565 and the “area with substrate ENTYFQS” value came to 0.0485. In addition, the “area with substrate ENVYFQS” value was determined as 0.0478, the “area with substrate ENWYFQS” value was 0 and the “area with substrate ENYYFQS” value amounted to 0.0296.
With MGESLFKGPRDYNPISSSICHLTNESDGHTTSLYGIGFGPFIITNKHLFRRNNGTLVVQSLHGVFKVKDTTTLQQHLVDGRDMIIIRMPKDFPPFPQKLKFREPQREERICLVTTNFQTKSMSSMVSDTSCTFPSGDGIFWKHWIQTKDGQCGSPLVSTRDGFIPGIHSASNFTNTNNYFTSVPKNFMELLTNQEAQQWVSGWRLNADSVLWGGHKVFMVKPEEPFQPVKEATQL [V165P], the “area with substrate ENAYFQS” value turned out to be 0.0644, the “area with substrate ENCYFQS” value is 0.0447, the “area with substrate ENDYFQS” value came out at 0.0609 and the “area with substrate ENEYFQS” value turned out to be 0.0498. In addition, the “area with substrate ENKYFQS” value was 0.0793, the “area with substrate ENNYFQS” value was 0.0577, the “area with substrate ENPYFQS” value turned out to be 0.0737 and the “area with substrate ENQYFQS” value was 0.0498. Moreover, the “area with substrate ENRYFQS” value turned out to be 0.0489, the “area with substrate ENSYFQS” value turned out to be 0.0514, the “area with substrate ENTYFQS” value is 0.0511 and the “area with substrate ENVYFQS” value was 0.0278.
